# Results: the supplement of paper PMC4604168 (melanoma cell lines)
# The other results are listed elsewhere or left out. Most values come without repeats; read them as rough.
# How the values were obtained:
# Experiment in all cases: cell count relative to DMSO control; melanoma cells; higher = more viable cells
# Settings in all cases: library dose: standard library concentration; 72 h
# SkMel28 = tested on: SkMel28
# SkMel2 = tested on: SkMel2
# SkMel30 = tested on: SkMel30
# SkMel5 = tested on: SkMel5
# UACC257 = tested on: UACC257
# UACC62 = tested on: UACC62
# WM115 = tested on: WM115
# WM1716 = tested on: WM1716
# WM1745 = tested on: WM1745
# WM3526 = tested on: WM3526
# 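Also: cells treated in 1,536-well plates, then fixed and DAPI-stained, with nuclei counted from automated high-throughput microscope images.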
Compound,cell count (SkMel28),cell count (SkMel2),cell count (SkMel30),cell count (SkMel5),cell count (UACC257),cell count (UACC62),cell count (WM115),cell count (WM1716),cell count (WM1745),cell count (WM3526)
"CN(NC(=O)CC(=O)NN(C)C(=S)c1ccccc1)C(=S)c1ccccc1 + O=c1cc(-c2cccc3c2Sc2ccccc2S3)oc(N2CCOCC2)c1 [KU55933] (first compound 0.03 µM, partner dose 5 µM)",1.75%,57.7%,67.6%,48%,101%,64.5%,19%,85.6%,31.2%,67.4%
"CCCCCCCCc1ccc(CCC(N)(CO)CO)cc1 [fingolimod] + COc1cc2c(Oc3ccc4[nH]c(C)cc4c3F)ncnc2cc1OCCCN1CCCC1 [cediranib] (first compound 10 µM, partner dose 2 µM)",1.19%,0.446%,11.6%,38.3%,64.3%,11.4%,10.5%,16.7%,3.9%,11.3%
"CC(C)(C)c1cnc(CSc2cnc(NC(=O)C3CCNCC3)s2)o1 + C[C@@H]1CCN(C(=O)CC#N)C[C@@H]1N(C)c1ncnc2[nH]ccc12 [CP690550] (first compound 0.05 µM, partner dose 5 µM)",73.1%,75.7%,91.8%,78.5%,100%,72%,80.8%,60.4%,67.6%,88.4%
"CC(C)(C)c1cnc(CSc2cnc(NC(=O)C3CCNCC3)s2)o1 + COC(=O)c1sccc1S(=O)(=O)Nc1ccc(Nc2ccccc2)cc1OC [GSK0660] (first compound 0.05 µM, partner dose 5 µM)",66.3%,80.1%,85.3%,76.3%,105%,76.3%,96.2%,82.4%,71.8%,92%
"COc1cc2c(Oc3ccc4[nH]c(C)cc4c3F)ncnc2cc1OCCCN1CCCC1 [cediranib] + O=c1cc(-c2cccc3c2Sc2ccccc2S3)oc(N2CCOCC2)c1 [KU55933] (first compound 2 µM, partner dose 5 µM)",73.8%,98.9%,107%,83.6%,107%,76.1%,97.5%,89.7%,85.2%,72.6%
"CC(C)(C)c1cnc(CSc2cnc(NC(=O)C3CCNCC3)s2)o1 + Cn1cncc1[C@@](N)(c1ccc(Cl)cc1)c1ccc2c(c1)c(-c1cccc(Cl)c1)cc(=O)n2C [tipifarnib] (first compound 0.05 µM, partner dose 0.05 µM)",35.7%,51.4%,75.3%,53.7%,81.4%,60.9%,64.3%,48%,51.9%,67.8%
"NC(=O)c1ccc(N(C(N)=O)c2c(F)cccc2F)nc1-c1ccc(F)cc1F + Cc1cc(Nc2cc(N3CCN(C)CC3)nc(/C=C/c3ccccc3)n2)n[nH]1 [ENMD2076] (first compound 2 µM, partner dose 0.2 µM)",45.3%,93.4%,86.6%,75.6%,87.3%,94.5%,63.5%,103%,83%,75.4%
"COc1cc2c(Oc3ccc4[nH]c(C)cc4c3F)ncnc2cc1OCCCN1CCCC1 [cediranib] + Oc1nc(-c2ccc(C(F)(F)F)cc2)nc2c1CSCC2 [XAV939] (first compound 2 µM, partner dose 10 µM)",83.1%,99%,93.5%,88%,79.3%,100%,95.4%,78.1%,69.2%,96.8%
"NC(=O)c1ccc(N(C(N)=O)c2c(F)cccc2F)nc1-c1ccc(F)cc1F + O=C(O)c1ccc2c(c1)nc(Nc1cccc(Cl)c1)c1ccncc12 [CX4945] (first compound 2 µM, partner dose 2 µM)",61.3%,96.9%,77.7%,63.8%,144%,98.6%,112%,96.3%,65.9%,67.3%
"NC(=O)c1ccc(N(C(N)=O)c2c(F)cccc2F)nc1-c1ccc(F)cc1F + Nc1ccn([C@@H]2O[C@H](CO)[C@@H](O)C2(F)F)c(=O)n1 [gemcitabine] (first compound 2 µM, partner dose 0.002 µM)",72.1%,78.1%,92.4%,81%,104%,75.7%,72.9%,66.7%,37.6%,104%
"CCCCCCCCc1ccc(CCC(N)(CO)CO)cc1 [fingolimod] + CS(=O)(=O)CCNCc1ccc(-c2ccc3ncnc(Nc4ccc(OCc5cccc(F)c5)c(Cl)c4)c3c2)o1 [lapatinib] (first compound 10 µM, partner dose 4 µM)",0.214%,0.356%,5.87%,15.4%,34.4%,10%,9.49%,13%,5.61%,8.54%
"Cc1ccc(NC(=O)c2cccc(N(C)C)c2)cc1NC(=O)c1ccc(O)cc1 + CCN(CC)CCCCNc1ncc2cc(-c3cc(OC)cc(OC)c3)c(NC(=O)NC(C)(C)C)nc2n1 [PD173074] (first compound 10 µM, partner dose 0.5 µM)",91%,91.1%,87.4%,77.7%,88.1%,110%,99.1%,125%,88.7%,90.1%
